The supplement of paper PMC3334620
In all, about 33,000 sequences were measured (“E-score (-0.5 to 0.5)”: median about -0.056, highest 2% from about 0.38 on). The list shows a part of the results.

What follows are sequences tested against Stb4 (UniProt P50104) (assay: PBM E-score (8-mer binding enrichment) (E-score (-0.5 to 0.5)); higher = stronger / more preferred TF binding; most listed sequences are background and not binding sites). Settings: protein concentration: 200 nM; construct: GST-DNA-binding domain.
Method in brief: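 The E-score, a modified Wilcoxon-Mann-Whitney statistic, was computed by the Universal PBM Analysis Suite for every ungapped eight-base word pooled with its reverse complement. Scans behind it were normalised with masliner after bound GST-tagged yeast transcription factors were detected with fluorescent anti-GST. The proteins, at about 100-200 nM, had been applied to universal all-10-mer Agilent arrays made double-stranded by primer extension.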
With ATTGGGTG the “PBM E-score” value was -0.0143.
With TGCAGTAA the “PBM E-score” value was -0.0856.
ACCGTGGG was tested, and the “PBM E-score” value was -0.0643.
With CATCGTGG the “PBM E-score” value was -0.171.
ACTAGGCA was tested, and the “PBM E-score” value was -0.149.
In the case of GTCCGGAA, the “PBM E-score” value was 0.373.
In the case of CCACCTGA, the “PBM E-score” value was -0.068.
With ACGGCCTG the “PBM E-score” value was -0.0276.
With GGAACGCC the “PBM E-score” value was 0.194.
For AACACCGC, the “PBM E-score” value was -0.0207.
For AAAATCAA, the “PBM E-score” value was 0.0231.
With AGTTCGGA the “PBM E-score” value was 0.442.
For TGTCTTAA, the “PBM E-score” value was -0.0591.
With ATCACTAC the “PBM E-score” value was -0.145.
In the case of ATTTGCAA, the “PBM E-score” value was 0.0378.
For CAGGCGGA, the “PBM E-score” value was 0.206.
With GTCACTCA the “PBM E-score” value was 0.0365.
For TAAAGAGA, the “PBM E-score” value was -0.168.
With GCAATCTA the “PBM E-score” value was -0.0486.
ACTGCGTG was tested, and the “PBM E-score” value was -0.279.
CAGCGATC was tested, and the “PBM E-score” value was -0.072.
For TGATAACA, the “PBM E-score” value was -0.179.
With GCAGCTCA the “PBM E-score” value was -0.125.
With AATACCCC the “PBM E-score” value was 0.153.
With CGCCTCAG the “PBM E-score” value was -0.12.
In the case of ATTTGATC, the “PBM E-score” value was 0.0782.
In the case of CCTAGAAC, the “PBM E-score” value was 0.0038.
For CCTATCTA, the “PBM E-score” value was -0.203.
ATGGAATA was tested, and the “PBM E-score” value was 0.054.
For AAAACCAG, the “PBM E-score” value was -0.0696.
In the case of ATCCGTCG, the “PBM E-score” value was 0.368.
In the case of TAATCCCA, the “PBM E-score” value was -0.0875.
For GATTGGAC, the “PBM E-score” value was -0.0333.
GAACTGAC was tested, and the “PBM E-score” value was 0.064.
For CTGGTCTC, the “PBM E-score” value was -0.244.
For ACCCATTG, the “PBM E-score” value was -0.126.
In the case of ACGTTGCC, the “PBM E-score” value was 0.00451.
With GCAACCAC the “PBM E-score” value was -0.0721.
For AGTTGGAG, the “PBM E-score” value was -0.269.
With CCACTAAA the “PBM E-score” value was -0.14.
For ACAACGCA, the “PBM E-score” value was -0.0967.
With AATATCTC the “PBM E-score” value was 0.00887.
For ACAGAGCA, the “PBM E-score” value was 0.00639.
ACTCATTA was tested, and the “PBM E-score” value was -0.255.
For GTCCTCGA, the “PBM E-score” value was -0.228.
With ATATTGCG the “PBM E-score” value was 0.157.
With ACGGTGAT the “PBM E-score” value was -0.251.
In the case of AGCAACAA, the “PBM E-score” value was -0.125.
In the case of CAACGCGC, the “PBM E-score” value was 0.00145.
For CTATTAAG, the “PBM E-score” value was -0.205.
With TCACGGAA the “PBM E-score” value was 0.389.
AGCCGCCA was tested, and the “PBM E-score” value was 0.113.
For CGGGCTCA, the “PBM E-score” value was 0.0437.
AAGCATCC was tested, and the “PBM E-score” value was 0.27.
For ATTGGAAA, the “PBM E-score” value was -0.136.
For AGTAAAAT, the “PBM E-score” value was -0.186.
TATCAATA was tested, and the “PBM E-score” value was -0.131.
In the case of AACCACAC, the “PBM E-score” value was -0.0263.
For GTACCTTA, the “PBM E-score” value was -0.0101.
CAATGCAA was tested, and the “PBM E-score” value was -0.0844.
GCCTAACA was tested, and the “PBM E-score” value was -0.105.
For CTGACAGA, the “PBM E-score” value was -0.0381.
CGGAGACC was tested, and the “PBM E-score” value was 0.205.
For ATGTCCCG, the “PBM E-score” value was 0.352.
For CACTGGCG, the “PBM E-score” value was -0.162.
For GGGCCTAC, the “PBM E-score” value was -0.0886.
With CCTACAAA the “PBM E-score” value was 0.0311.
In the case of GCACCACC, the “PBM E-score” value was 0.00724.
With ACCCGAGA the “PBM E-score” value was 0.472.
CGGTGAGA was tested, and the “PBM E-score” value was -0.00483.
AGACCCGG was tested, and the “PBM E-score” value was 0.305.
In the case of ACTGTGCT, the “PBM E-score” value was -0.196.
For CAATACAC, the “PBM E-score” value was -0.105.
GACGACAA was tested, and the “PBM E-score” value was 0.183.
In the case of AAACGCTA, the “PBM E-score” value was -0.194.
For GTGTTACA, the “PBM E-score” value was -0.0391.
In the case of AGGCGATA, the “PBM E-score” value was -0.166.
With GCCGTAGC the “PBM E-score” value was -0.0407.
CGTCAGAG was tested, and the “PBM E-score” value was -0.169.
AAGTAAAA was tested, and the “PBM E-score” value was -0.0223.
AATCCAAG was tested, and the “PBM E-score” value was -0.12.
TCCGGACA was tested, and the “PBM E-score” value was 0.322.
In the case of TACCTATA, the “PBM E-score” value was -0.303.
In the case of ACTGACTA, the “PBM E-score” value was -0.198.
With AAGCCGAA the “PBM E-score” value was 0.407.
For GTTTAATA, the “PBM E-score” value was -0.13.
For ACCTCTAT, the “PBM E-score” value was -0.105.
CGCCGCCA was tested, and the “PBM E-score” value was 0.0468.
With CCGTACCC the “PBM E-score” value was 0.214.
In the case of AAAACCTA, the “PBM E-score” value was 0.043.
In the case of CAAATGTG, the “PBM E-score” value was 0.15.
AGGGAGAT was tested, and the “PBM E-score” value was -0.24.
AAGTGAAC was tested, and the “PBM E-score” value was -0.136.
For ACAAAAGC, the “PBM E-score” value was -0.101.
With GTGCTCCA the “PBM E-score” value was -0.225.
ATGATACC was tested, and the “PBM E-score” value was 0.0572.
For AACGCTGC, the “PBM E-score” value was -0.176.
In the case of GCTCGTAA, the “PBM E-score” value was -0.0667.
For GCCACTAA, the “PBM E-score” value was -0.193.
ACTCGGCA was tested, and the “PBM E-score” value was 0.428.
With GCACACAA the “PBM E-score” value was -0.0776.
With AAGTGTCA the “PBM E-score” value was -0.233.
For CAGGGCAC, the “PBM E-score” value was -0.15.
GCAGTACC was tested, and the “PBM E-score” value was 0.094.
In the case of ATCTGTAG, the “PBM E-score” value was 0.00216.
TACACGGA was tested, and the “PBM E-score” value was 0.229.
With GCCACAGC the “PBM E-score” value was -0.0704.
AAGCGACG was tested, and the “PBM E-score” value was -0.0432.
With AACTCAAA the “PBM E-score” value was 0.00363.
